Source: the supplement of paper PMC4996465
Counter-ions that a name gives are not always drawn. Viability of KB3-1 and Nalm-6 cells after 48 h of drug alone (CellTiter-Glo), 11 doses over about 4.5 log units. % of DMSO wells, lower = more cell loss; AC50 from the fitted curve, lower = more potent. No active / inactive call. Nalm-6 was screened in two runs. AC50 is listed only for well-fitted inhibitory curves. KB3-1 is a HeLa-derived carcinoma line, Nalm-6 a B-cell precursor leukaemia line.

Experiments:
KB3-1 = assay: viability (% of DMSO control); higher = more viable cells
Protocol: (§1)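 Eleven-dose screen of the NCATS MIPE 3 library on cells without co-treatment; CellTiter-Glo after 48 h, as % of DMSO wells.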

Nalm-6 = assay: as above
Protocol: as §1

OC[C@H]1O[C@H](C[C@@H]1O)[N]2C=NC3=C2\N=C/NC[C@H]3O [Pentostatin]
Details | viability [%]
KB3-1, 0.00078 µM | 107
KB3-1, 0.00234 µM | 106
KB3-1, 0.00702 µM | 106
KB3-1, 0.0211 µM | 101
KB3-1, 0.0632 µM | 104
KB3-1, 0.19 µM | 102
KB3-1, 0.569 µM | 97.6
KB3-1, 1.71 µM | 100
KB3-1, 5.12 µM | 102
KB3-1, 15.4 µM | 99.7
KB3-1, 46.1 µM | 92.9
Nalm-6, run: 1, 0.00078 µM | 122
Nalm-6, run: 1, 0.00234 µM | 115
Nalm-6, run: 1, 0.00702 µM | 124
Nalm-6, run: 1, 0.0211 µM | 117
Nalm-6, run: 1, 0.0632 µM | 117
Nalm-6, run: 1, 0.19 µM | 114
Nalm-6, run: 1, 0.569 µM | 111
Nalm-6, run: 1, 1.71 µM | 114
Nalm-6, run: 1, 5.12 µM | 107
Nalm-6, run: 1, 15.4 µM | 100
Nalm-6, run: 1, 46.1 µM | 97.3
Nalm-6, run: 2, 0.00078 µM | 111
Nalm-6, run: 2, 0.00234 µM | 113
Nalm-6, run: 2, 0.00702 µM | 110
Nalm-6, run: 2, 0.0211 µM | 106
Nalm-6, run: 2, 0.0632 µM | 111
Nalm-6, run: 2, 0.19 µM | 105
Nalm-6, run: 2, 0.569 µM | 101
Nalm-6, run: 2, 1.71 µM | 107
Nalm-6, run: 2, 5.12 µM | 103
Nalm-6, run: 2, 15.4 µM | 100
Nalm-6, run: 2, 46.1 µM | 94.3

CCCCCCCCCCCCCCCCCCOP(=O)([O-])OC1CC[N+](C)(C)CC1 [Perifosine]
Details | viability [%]
KB3-1, 0.00039 µM | 104
KB3-1, 0.00117 µM | 102
KB3-1, 0.00351 µM | 105
KB3-1, 0.0105 µM | 110
KB3-1, 0.0316 µM | 106
KB3-1, 0.0948 µM | 107
KB3-1, 0.284 µM | 106
KB3-1, 0.853 µM | 101
KB3-1, 2.56 µM | 101
KB3-1, 7.68 µM | 99.2
KB3-1, 23 µM | 98.3
Nalm-6, run: 1, 0.00039 µM | 122
Nalm-6, run: 1, 0.00117 µM | 114
Nalm-6, run: 1, 0.00351 µM | 124
Nalm-6, run: 1, 0.0105 µM | 128
Nalm-6, run: 1, 0.0316 µM | 122
Nalm-6, run: 1, 0.0948 µM | 118
Nalm-6, run: 1, 0.284 µM | 113
Nalm-6, run: 1, 0.853 µM | 124
Nalm-6, run: 1, 2.56 µM | 110
Nalm-6, run: 1, 7.68 µM | 112
Nalm-6, run: 1, 23 µM | 104
Nalm-6, run: 2, 0.00039 µM | 110
Nalm-6, run: 2, 0.00117 µM | 108
Nalm-6, run: 2, 0.00351 µM | 111
Nalm-6, run: 2, 0.0105 µM | 109
Nalm-6, run: 2, 0.0316 µM | 108
Nalm-6, run: 2, 0.0948 µM | 107
Nalm-6, run: 2, 0.284 µM | 107
Nalm-6, run: 2, 0.853 µM | 105
Nalm-6, run: 2, 2.56 µM | 103
Nalm-6, run: 2, 7.68 µM | 99.6
Nalm-6, run: 2, 23 µM | 91.9

Nc1nccc(-c2ccc3noc(-c4ccc(Cl)cc4)c3c2)n1 [Pim 1 inhibitor 2]
Details | viability [%]
KB3-1, 0.00078 µM | 106
KB3-1, 0.00234 µM | 102
KB3-1, 0.00702 µM | 103
KB3-1, 0.0211 µM | 103
KB3-1, 0.0632 µM | 109
KB3-1, 0.19 µM | 110
KB3-1, 0.569 µM | 109
KB3-1, 1.71 µM | 106
KB3-1, 5.12 µM | 105
KB3-1, 15.4 µM | 107
KB3-1, 46.1 µM | 76.2
Nalm-6, run: 1, 0.00078 µM | 103
Nalm-6, run: 1, 0.00234 µM | 107
Nalm-6, run: 1, 0.00702 µM | 101
Nalm-6, run: 1, 0.0211 µM | 112
Nalm-6, run: 1, 0.0632 µM | 118
Nalm-6, run: 1, 0.19 µM | 115
Nalm-6, run: 1, 0.569 µM | 128
Nalm-6, run: 1, 1.71 µM | 123
Nalm-6, run: 1, 5.12 µM | 111
Nalm-6, run: 1, 15.4 µM | 115
Nalm-6, run: 1, 46.1 µM | 80.3
Nalm-6, run: 2, 0.00078 µM | 109
Nalm-6, run: 2, 0.00234 µM | 106
Nalm-6, run: 2, 0.00702 µM | 109
Nalm-6, run: 2, 0.0211 µM | 112
Nalm-6, run: 2, 0.0632 µM | 109
Nalm-6, run: 2, 0.19 µM | 110
Nalm-6, run: 2, 0.569 µM | 114
Nalm-6, run: 2, 1.71 µM | 105
Nalm-6, run: 2, 5.12 µM | 110
Nalm-6, run: 2, 15.4 µM | 112
Nalm-6, run: 2, 46.1 µM | 63.4

CCc1ccc(CCOc2ccc(CC3SC(=O)NC3=O)cc2)nc1 (configuration not stated) [Pioglitazone HCl]
Details | viability [%]
KB3-1, 0.00078 µM | 97.3
KB3-1, 0.00234 µM | 94.2
KB3-1, 0.00702 µM | 105
KB3-1, 0.0211 µM | 94.7
KB3-1, 0.0632 µM | 104
KB3-1, 0.19 µM | 101
KB3-1, 0.569 µM | 98.9
KB3-1, 1.71 µM | 88
KB3-1, 5.12 µM | 105
KB3-1, 15.4 µM | 103
KB3-1, 46.1 µM | 6.87
Nalm-6, run: 1, 0.00078 µM | 101
Nalm-6, run: 1, 0.00234 µM | 94.3
Nalm-6, run: 1, 0.00702 µM | 100
Nalm-6, run: 1, 0.0211 µM | 103
Nalm-6, run: 1, 0.0632 µM | 110
Nalm-6, run: 1, 0.19 µM | 107
Nalm-6, run: 1, 0.569 µM | 107
Nalm-6, run: 1, 1.71 µM | 106
Nalm-6, run: 1, 5.12 µM | 93.2
Nalm-6, run: 1, 15.4 µM | 100
Nalm-6, run: 1, 46.1 µM | 46.3
Nalm-6, run: 2, 0.00078 µM | 102
Nalm-6, run: 2, 0.00234 µM | 104
Nalm-6, run: 2, 0.00702 µM | 100
Nalm-6, run: 2, 0.0211 µM | 96.1
Nalm-6, run: 2, 0.0632 µM | 111
Nalm-6, run: 2, 0.19 µM | 100
Nalm-6, run: 2, 0.569 µM | 107
Nalm-6, run: 2, 1.71 µM | 98.6
Nalm-6, run: 2, 5.12 µM | 103
Nalm-6, run: 2, 15.4 µM | 100
Nalm-6, run: 2, 46.1 µM | 77.7
